From PubChem BioAssay AID686971 (National Center for Advancing Translational Sciences (NCATS), 2013)
The campaign covered roughly 360,000 compounds. About 7,500 (2.1%) were called active. The shares of active, inactive and inconclusive entries below differ from those in the screen. The call rests on the fitted dose curve; in most records, active means well fitted cell-killing curve with a large enough effect; inconclusive means small, poorly fitted or top-dose-only effect, or effect the other way, or another doubt; inactive means no such curve, though single readings can be large or run the other way. Potencies of inconclusive entries are left out as doubtful fits.

assay: qHTS for induction of synthetic lethality in tumor cells producing 2HG: qHTS for the HT-1080-IDH1KD cell line; conditions: HT-1080 IDH1 knockdown viability, ATP luminescence, 48 h; series mostly up to 46.1 µM
Procedure, shortened: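 Viability of IDH1-knockdown HT-1080 fibrosarcoma cells was assessed by CellTiter-Glo after 48 h at 37 °C with titrated compound; concentration-effect curves were classified by fit quality and response size.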
Potency means the concentration at half of the fitted maximal effect; tags describe the fitted curve by direction and shape.

SMILES | Potency
O=c1cc(Nc2ccc3c(c2)OCCO3)[nH]c(=O)n1-c1ccc(Br)cc1 | inconclusive [cytotoxic, single point]
OCC1OC(n2cnc3c(N4CCCC4)ncnc32)C(O)C1O (stereo not given) | inconclusive [cytotoxic, single point]
C=CCC[C@@H](Cc1ccc(F)cc1)C(=O)OC[C@@H]1CCCN1C(=O)[C@@H](CC=C)CC(=O)N(CCO)Cc1ccccc1 | inconclusive [cytotoxic, single point]
Cc1cc(N2CCN(S(=O)(=O)c3ccc(C)c(C)c3)CC2)c2ccccc2n1 | inconclusive [cytotoxic, single point]
O=C(Nc1ncccn1)c1ccc([N+](=O)[O-])o1 | inconclusive [cytotoxic, single point]
COC(=O)c1ccc(/C=C/C(=O)c2ccc(OC)c(OC)c2)cc1 | inconclusive [cytotoxic, single point]
CCCNC(=O)C(=O)NCC(c1ccc2c(c1)OCO2)N1CCN(c2ccc(F)cc2)CC1 (stereo not given) | inactive
CCOc1cc(/C=C(/C#N)C(=O)Nc2ccc(O)cc2)cc(Br)c1O | active: 2.31 µM
CCCCCC(=O)N1C[C@H](O)[C@@H](n2cc(-c3ccc(F)cc3)nn2)C[C@@H]1c1ccc(OC)cc1 | inactive
CC(=O)NC1=C(C#N)C(c2ccccc2)c2c(ccc3ccccc23)O1 (stereo not given) | active: 14.6 µM
COC(=O)c1cccc(NC(=O)CSc2nnc(-c3ccco3)o2)c1 | inactive
Cc1cc(C)n(-c2nc3ccccc3nc2N2CCN(C(=O)c3ccc(Cl)cc3)CC2)n1 | inconclusive [cytotoxic, single point]
CCC(Sc1nc2sc(C(=O)OC)c(C)c2c(=O)n1N)C(=O)N(CC)CC (stereo not given) | inactive
Cc1cc2c(cc1C)N(Cc1ccc(Cl)cc1)C1=NCCCN12 | inconclusive [cytotoxic, single point]
CC(C)c1ccccc1-n1c(SCC(=O)N2CCN(c3ccccc3)CC2)nnc1-c1cccnc1 | inconclusive [cytotoxic, single point]
C=C1CCC[C@]2(C)C[C@H]3OC(=O)C(CN4CC(C)OC(C)C4)[C@H]3C[C@@H]12 (stereo not given in full) | inconclusive [cytotoxic, single point]
C[C@H](CO)N1C[C@H](C)[C@@H](CN(C)S(=O)(=O)c2ccc(Cl)cc2)Oc2ccc(NS(=O)(=O)c3ccccc3)cc2CC1=O | inconclusive [cytotoxic, partial curve]
Cn1nc(C(=O)NCCCN2CCCCC2)c2c1-c1ccccc1SC2 | inactive
O=C(CCN1CCOCC1)N/N=C/c1cc(Br)cc(Br)c1O | inconclusive [cytotoxic, single point]
C=CCNC(=S)NCC=C | inactive
O=C(Nc1nc2ccccc2s1)c1cc(-c2ccco2)nc2ccccc12 | inconclusive [cytotoxic, single point]
COc1ccccc1CNC(=O)c1sccc1C | inactive
COc1ccc(C2=Nc3ccccc3NC(=O)C2N(Cc2ccc(F)cc2)C(=O)c2ccco2)cc1 (stereo not given) | inconclusive [cytotoxic, partial curve]

SMILES | Potency
O=C(CCS(=O)(=O)c1ccccc1)N(CCCN1CCOCC1)c1nc2c(F)cccc2s1 | inconclusive [cytotoxic, single point]
O=S1(=O)c2ccc(Br)cc2N2CCC[C@H]2CN1Cc1ccccc1 | active: 5.8 µM
CC(C)(C)NC(=S)N1CCC2CC1c1c(Cl)cccc12 (stereo not given) | inactive
COc1ccc(-c2nc(NC(=O)c3cc(C(C)(C)C)nn3C)sc2C)cc1 | inconclusive [cytotoxic, single point]
Cc1ccc(NC(=O)c2ccc(NCCCN3CCOCC3)c([N+](=O)[O-])c2)cc1Cl | active: 18.4 µM
O=C1N/C(=C\c2ccccc2)c2ccccc21 | inconclusive [cytotoxic, partial curve]
COCCn1c2nc(=O)n(-c3ccccc3)c(=O)c-2nc2ccccc21 | inconclusive [cytotoxic, single point]
NS(=O)(=O)c1ccc(-n2nncc2-c2ccco2)cc1 | inactive
N#Cc1ccc(OCC(=O)Nc2cccc(S(=O)(=O)NC3=NCCCCC3)c2)cc1 | inactive
CC1(C(=O)NS(=O)(=O)c2ccccc2)CCN1C(=O)c1ccc(C2CCCCC2)cc1 (stereo not given) | inactive
COc1cccc(C(NC(C)=O)c2nc(-c3ccc4ccccc4c3)cs2)c1 (stereo not given) | inconclusive [cytotoxic, partial curve]
Cc1nc2cc(OC3(C)CCN(Cc4ccc(OC(F)(F)F)cc4)C3)ccc2s1 (stereo not given) | inconclusive [cytotoxic, single point]
CC(/C=C/c1ccc2c(c1)OCO2)=N/NC(=O)c1cccnc1 | inactive
COC[C@H]1CCCN1[C@@H]1CS(=O)(=O)N[C@H]1COCc1ccccc1 | inactive
CCOc1cc(-c2nc(-c3ccccc3OC)no2)cc(OCC)c1OCC | inactive
COc1ccc(NC(=O)Cn2nnc(C(=O)NCc3cccs3)c2N)cc1OC | inconclusive [cytotoxic, single point]
COc1ccc(C(CC(=O)Nc2ccc(Cl)cc2F)NC(=O)C(F)(F)F)cc1 (stereo not given) | inconclusive [cytotoxic, single point]
CCCCC[C@H](C)N1C[C@@H](COCc2ccccc2)Oc2cc(N3CCC[C@H]3C(N)=O)ccc2S1(=O)=O | inconclusive [cytotoxic, single point]
CCS(=O)(=O)N1CCC(C(=O)c2ccc(Cl)cc2)CC1 | inconclusive [cytotoxic, single point]
Nc1nsc2ccccc12 | active: 2.51 µM
C/C(N)=C(/C#N)C(=O)COC(=O)c1ccc(NC(N)=O)cc1 | inconclusive [rising, single point]
CC(=O)Nc1cccc(-c2ccnc3c2CC(C)(C(=O)Nc2ccc(Cl)cc2)O3)c1 (stereo not given) | active: 4.11 µM
